Laboratory results: article PMC9481464
These are yes or no findings as the source states them, for the method shown. For some assays here: In cells and extracts the contact can be indirect. Some entries that bind do so weakly or less than the wild type.

By UniProt entry, the sequences of proteins in these tests, tags left out. Where a name states a change or a piece, a line headed by the entry shows the natural chain unless it says otherwise. Chains listed by the source or under a name are the forms on record and can include a tag or linker.
UniProt Q9P278: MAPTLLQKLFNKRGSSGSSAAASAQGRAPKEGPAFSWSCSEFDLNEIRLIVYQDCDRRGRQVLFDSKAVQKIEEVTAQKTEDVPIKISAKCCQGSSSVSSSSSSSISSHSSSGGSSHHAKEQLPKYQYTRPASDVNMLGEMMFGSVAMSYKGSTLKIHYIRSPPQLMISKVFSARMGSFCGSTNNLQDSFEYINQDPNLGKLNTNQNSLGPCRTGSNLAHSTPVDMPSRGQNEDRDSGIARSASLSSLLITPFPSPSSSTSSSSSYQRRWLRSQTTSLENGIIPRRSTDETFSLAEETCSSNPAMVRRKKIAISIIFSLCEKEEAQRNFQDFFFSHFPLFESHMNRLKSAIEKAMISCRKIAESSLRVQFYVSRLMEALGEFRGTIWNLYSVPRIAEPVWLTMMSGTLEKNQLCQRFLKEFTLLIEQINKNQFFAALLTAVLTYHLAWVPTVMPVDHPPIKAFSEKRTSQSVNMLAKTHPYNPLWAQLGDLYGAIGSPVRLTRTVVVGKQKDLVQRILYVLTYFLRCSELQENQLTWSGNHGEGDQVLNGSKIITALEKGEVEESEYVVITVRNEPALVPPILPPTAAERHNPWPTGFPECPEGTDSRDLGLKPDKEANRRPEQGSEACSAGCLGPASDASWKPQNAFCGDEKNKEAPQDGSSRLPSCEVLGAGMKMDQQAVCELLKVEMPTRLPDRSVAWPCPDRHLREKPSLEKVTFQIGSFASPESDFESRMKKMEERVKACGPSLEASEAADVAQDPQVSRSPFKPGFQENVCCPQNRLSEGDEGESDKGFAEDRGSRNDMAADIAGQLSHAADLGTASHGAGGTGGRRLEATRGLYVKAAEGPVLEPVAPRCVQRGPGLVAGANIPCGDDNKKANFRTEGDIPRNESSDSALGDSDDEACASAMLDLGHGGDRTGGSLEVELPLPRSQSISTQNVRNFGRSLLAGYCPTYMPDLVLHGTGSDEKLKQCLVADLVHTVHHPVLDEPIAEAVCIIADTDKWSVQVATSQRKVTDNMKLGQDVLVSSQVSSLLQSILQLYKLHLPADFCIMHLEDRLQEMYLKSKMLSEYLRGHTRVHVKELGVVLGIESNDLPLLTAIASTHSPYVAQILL
UniProt O75140: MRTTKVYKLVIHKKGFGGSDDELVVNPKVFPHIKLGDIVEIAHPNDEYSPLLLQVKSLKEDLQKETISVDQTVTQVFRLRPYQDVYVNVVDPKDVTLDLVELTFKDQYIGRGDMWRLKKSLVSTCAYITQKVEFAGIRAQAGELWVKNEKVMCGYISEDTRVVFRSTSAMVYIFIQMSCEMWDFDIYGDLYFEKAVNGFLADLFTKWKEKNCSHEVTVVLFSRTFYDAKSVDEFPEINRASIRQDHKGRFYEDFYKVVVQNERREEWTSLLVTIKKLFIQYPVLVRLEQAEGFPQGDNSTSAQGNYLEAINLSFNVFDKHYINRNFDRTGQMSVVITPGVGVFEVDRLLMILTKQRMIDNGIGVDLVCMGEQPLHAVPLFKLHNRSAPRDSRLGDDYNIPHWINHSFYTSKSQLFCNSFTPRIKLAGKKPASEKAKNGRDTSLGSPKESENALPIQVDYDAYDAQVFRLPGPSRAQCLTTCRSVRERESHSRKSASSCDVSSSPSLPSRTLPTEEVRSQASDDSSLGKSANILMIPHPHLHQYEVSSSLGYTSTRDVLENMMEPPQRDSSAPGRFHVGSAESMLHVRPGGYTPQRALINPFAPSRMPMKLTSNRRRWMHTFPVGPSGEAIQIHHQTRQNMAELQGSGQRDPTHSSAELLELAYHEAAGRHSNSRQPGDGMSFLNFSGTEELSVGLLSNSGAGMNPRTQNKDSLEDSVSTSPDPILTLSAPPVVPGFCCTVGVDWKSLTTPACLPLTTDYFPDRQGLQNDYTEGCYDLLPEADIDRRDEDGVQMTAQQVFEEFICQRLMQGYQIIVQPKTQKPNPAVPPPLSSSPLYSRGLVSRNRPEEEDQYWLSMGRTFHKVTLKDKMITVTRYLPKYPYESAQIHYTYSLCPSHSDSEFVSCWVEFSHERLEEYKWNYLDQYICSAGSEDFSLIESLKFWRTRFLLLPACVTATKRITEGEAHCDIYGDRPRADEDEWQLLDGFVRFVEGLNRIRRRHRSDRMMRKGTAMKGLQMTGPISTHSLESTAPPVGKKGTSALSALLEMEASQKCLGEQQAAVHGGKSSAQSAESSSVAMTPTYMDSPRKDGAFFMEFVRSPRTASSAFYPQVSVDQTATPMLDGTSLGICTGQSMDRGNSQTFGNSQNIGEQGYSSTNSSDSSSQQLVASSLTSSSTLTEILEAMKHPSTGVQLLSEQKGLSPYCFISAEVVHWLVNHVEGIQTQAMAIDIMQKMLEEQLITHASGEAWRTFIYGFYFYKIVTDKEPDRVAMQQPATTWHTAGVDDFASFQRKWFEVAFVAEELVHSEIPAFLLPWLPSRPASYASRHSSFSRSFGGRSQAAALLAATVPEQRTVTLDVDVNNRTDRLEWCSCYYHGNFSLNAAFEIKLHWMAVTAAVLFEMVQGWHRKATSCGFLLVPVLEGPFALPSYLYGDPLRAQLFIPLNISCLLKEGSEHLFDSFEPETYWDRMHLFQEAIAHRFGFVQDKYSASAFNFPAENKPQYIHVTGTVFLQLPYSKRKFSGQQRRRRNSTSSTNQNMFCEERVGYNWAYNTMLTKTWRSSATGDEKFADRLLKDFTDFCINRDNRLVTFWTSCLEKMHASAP
UniProt Q9NQL2: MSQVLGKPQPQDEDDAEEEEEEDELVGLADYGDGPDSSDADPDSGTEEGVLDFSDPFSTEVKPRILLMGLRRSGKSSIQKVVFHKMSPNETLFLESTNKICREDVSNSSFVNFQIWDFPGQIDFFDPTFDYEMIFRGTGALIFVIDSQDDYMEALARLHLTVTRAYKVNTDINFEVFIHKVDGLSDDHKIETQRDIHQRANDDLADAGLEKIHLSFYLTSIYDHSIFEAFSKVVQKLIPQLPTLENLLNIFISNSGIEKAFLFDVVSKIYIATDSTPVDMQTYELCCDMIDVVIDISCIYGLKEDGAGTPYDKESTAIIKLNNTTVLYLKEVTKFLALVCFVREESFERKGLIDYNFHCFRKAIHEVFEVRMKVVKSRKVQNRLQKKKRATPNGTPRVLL
UniProt Q9HB90: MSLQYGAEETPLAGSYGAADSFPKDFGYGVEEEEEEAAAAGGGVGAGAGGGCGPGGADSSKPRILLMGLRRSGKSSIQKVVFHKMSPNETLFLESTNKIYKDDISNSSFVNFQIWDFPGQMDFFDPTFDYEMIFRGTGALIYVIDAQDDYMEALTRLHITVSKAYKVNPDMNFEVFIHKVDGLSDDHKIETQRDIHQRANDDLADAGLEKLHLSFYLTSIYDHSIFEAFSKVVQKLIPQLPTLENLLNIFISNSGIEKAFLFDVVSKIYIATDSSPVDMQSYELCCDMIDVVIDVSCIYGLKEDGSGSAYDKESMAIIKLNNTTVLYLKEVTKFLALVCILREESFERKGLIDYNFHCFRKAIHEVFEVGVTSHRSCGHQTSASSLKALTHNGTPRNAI
UniProt Q5VZM2: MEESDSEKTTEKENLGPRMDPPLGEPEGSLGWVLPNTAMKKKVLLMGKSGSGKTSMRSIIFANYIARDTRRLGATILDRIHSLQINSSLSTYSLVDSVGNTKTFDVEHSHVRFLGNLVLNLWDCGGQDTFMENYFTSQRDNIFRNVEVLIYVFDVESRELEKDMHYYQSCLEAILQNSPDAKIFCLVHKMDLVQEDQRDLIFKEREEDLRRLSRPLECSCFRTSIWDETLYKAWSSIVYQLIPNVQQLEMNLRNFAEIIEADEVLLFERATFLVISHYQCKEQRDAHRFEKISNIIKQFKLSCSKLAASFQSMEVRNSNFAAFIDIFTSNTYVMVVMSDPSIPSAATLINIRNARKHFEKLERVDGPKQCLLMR
GTP-locking mutant of RagB^long with D96A (Q5VZM2, form named): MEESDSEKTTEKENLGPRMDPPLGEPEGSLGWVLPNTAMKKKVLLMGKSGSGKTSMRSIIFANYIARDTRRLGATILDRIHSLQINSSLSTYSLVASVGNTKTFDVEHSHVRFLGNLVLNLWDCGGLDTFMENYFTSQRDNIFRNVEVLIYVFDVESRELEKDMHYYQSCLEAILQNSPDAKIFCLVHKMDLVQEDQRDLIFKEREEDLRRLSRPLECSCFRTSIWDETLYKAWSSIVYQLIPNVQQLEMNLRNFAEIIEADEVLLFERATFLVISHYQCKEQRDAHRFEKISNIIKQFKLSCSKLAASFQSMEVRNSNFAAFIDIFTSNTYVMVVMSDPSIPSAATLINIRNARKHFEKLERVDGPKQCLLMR
GTP-locking mutant of RagB^long with L94A (Q5VZM2, form named): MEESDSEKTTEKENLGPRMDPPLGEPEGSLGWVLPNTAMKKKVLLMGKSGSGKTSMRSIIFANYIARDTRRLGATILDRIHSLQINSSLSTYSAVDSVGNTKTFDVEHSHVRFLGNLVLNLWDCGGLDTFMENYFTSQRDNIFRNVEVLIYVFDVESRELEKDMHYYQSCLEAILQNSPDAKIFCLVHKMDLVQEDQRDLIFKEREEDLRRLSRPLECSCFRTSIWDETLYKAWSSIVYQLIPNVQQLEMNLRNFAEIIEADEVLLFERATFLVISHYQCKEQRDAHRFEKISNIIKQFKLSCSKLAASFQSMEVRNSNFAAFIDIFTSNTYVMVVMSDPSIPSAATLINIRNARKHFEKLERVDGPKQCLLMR
untagged RagB^short purified from bacteria (Q5VZM2-2, form named): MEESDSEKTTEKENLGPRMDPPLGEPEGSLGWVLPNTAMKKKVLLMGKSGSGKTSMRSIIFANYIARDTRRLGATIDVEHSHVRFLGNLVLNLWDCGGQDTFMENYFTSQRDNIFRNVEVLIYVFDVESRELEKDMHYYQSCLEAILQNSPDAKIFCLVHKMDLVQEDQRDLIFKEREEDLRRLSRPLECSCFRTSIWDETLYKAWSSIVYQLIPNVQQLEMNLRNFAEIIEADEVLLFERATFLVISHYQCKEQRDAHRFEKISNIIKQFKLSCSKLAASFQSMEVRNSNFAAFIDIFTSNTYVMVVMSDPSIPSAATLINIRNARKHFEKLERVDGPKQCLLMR
RagB^shortAQVHS (Q5VZM2-2, form named): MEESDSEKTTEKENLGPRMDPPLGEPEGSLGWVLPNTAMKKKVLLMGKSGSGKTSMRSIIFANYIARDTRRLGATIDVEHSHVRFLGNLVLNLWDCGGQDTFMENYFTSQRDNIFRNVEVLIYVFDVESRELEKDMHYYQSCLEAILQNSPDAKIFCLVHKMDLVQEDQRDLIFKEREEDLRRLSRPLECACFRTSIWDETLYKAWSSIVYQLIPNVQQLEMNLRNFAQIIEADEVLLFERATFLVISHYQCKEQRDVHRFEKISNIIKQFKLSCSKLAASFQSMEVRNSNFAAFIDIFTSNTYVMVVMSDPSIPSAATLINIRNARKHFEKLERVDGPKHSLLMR
RagB^shortΔN (Q5VZM2-2, form named): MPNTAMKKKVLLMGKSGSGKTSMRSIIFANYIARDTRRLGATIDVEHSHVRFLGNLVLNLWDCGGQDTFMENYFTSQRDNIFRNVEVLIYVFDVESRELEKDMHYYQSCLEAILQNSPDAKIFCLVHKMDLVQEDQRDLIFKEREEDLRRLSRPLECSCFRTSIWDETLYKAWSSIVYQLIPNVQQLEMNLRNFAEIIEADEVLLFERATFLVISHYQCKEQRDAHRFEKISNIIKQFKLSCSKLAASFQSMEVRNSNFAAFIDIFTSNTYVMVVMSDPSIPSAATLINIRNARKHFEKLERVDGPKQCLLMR
untagged RagB^shortT54N purified from HEK293T cells (Q5VZM2-2, form named): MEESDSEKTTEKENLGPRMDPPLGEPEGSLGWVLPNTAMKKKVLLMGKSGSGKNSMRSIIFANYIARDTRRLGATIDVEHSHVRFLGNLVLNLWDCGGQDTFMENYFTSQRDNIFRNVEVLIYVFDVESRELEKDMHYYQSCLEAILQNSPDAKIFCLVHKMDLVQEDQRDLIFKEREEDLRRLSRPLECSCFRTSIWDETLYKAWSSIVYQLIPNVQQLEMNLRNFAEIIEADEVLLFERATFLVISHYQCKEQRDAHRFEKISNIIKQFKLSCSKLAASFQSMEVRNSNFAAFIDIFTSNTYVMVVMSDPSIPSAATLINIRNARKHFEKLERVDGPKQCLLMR
UniProt Q7L523: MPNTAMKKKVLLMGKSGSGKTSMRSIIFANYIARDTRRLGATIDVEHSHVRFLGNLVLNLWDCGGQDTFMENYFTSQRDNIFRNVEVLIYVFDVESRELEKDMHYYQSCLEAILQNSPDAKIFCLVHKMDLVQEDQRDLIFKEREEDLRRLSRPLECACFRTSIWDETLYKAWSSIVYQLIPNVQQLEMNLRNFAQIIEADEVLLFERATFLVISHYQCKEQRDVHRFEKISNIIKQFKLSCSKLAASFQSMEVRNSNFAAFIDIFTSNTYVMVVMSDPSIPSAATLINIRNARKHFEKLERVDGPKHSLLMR

Key:
[1] = target: folliculin complex (FLCN, FNIP2) (human (cDNA from HEK293T cells)) (UniProt Q8NFG4+Q9P278); test: co-IP; folliculin complex (FLCN, FNIP2) with Rag dimers harbouring nucleotide-state mutations or RagB^long mutants; lysis in 40 mM HEPES pH 7.4, 5 mM MgCl2, 1% Triton X-100; washes with 500 mM NaCl
[2] = target: GATOR1 complex (DEPDC5, Nprl2, Nprl3) (UniProt O75140); test: co-IP; whole GATOR1 complex with RagA/B isoforms and their mutants, taken to reflect mainly the inhibitory (DEPDC5) interface; lysis in 40 mM HEPES pH 7.4, 5 mM MgCl2, 1% Triton X-100; washes with 500 mM NaCl
RagD (human) = RagD (human) (UniProt Q9NQL2); test: co-IP; HA-tagged RagA, RagB^short or RagB^long with myc-tagged RagC and RagD; lysis in 40 mM HEPES pH 7.4, 5 mM MgCl2, 1% Triton X-100; washes with 500 mM NaCl
RagC (human) = RagC (human) (UniProt Q9HB90); test: as above
Nprl2/3 dimer = target: T1, Nprl2/3 dimer (UniProt Q8WTW4); test: co-IP; Nprl2/3 dimer with Rag GTPases in DEPDC5KO cells, to assess the GAP interface only; lysis in 40 mM HEPES pH 7.4, 5 mM MgCl2, 1% Triton X-100; washes with 500 mM NaCl
T1 sequence 1: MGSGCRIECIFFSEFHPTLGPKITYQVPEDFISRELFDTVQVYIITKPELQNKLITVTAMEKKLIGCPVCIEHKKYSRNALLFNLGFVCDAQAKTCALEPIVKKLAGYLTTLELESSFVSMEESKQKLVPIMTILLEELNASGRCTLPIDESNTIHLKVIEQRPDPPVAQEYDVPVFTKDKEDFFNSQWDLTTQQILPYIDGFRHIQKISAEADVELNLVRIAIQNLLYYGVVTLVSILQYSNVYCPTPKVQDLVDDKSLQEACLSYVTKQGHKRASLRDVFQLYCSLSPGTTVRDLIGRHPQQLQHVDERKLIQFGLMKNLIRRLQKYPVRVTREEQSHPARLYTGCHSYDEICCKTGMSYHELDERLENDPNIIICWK
T1 sequence 2: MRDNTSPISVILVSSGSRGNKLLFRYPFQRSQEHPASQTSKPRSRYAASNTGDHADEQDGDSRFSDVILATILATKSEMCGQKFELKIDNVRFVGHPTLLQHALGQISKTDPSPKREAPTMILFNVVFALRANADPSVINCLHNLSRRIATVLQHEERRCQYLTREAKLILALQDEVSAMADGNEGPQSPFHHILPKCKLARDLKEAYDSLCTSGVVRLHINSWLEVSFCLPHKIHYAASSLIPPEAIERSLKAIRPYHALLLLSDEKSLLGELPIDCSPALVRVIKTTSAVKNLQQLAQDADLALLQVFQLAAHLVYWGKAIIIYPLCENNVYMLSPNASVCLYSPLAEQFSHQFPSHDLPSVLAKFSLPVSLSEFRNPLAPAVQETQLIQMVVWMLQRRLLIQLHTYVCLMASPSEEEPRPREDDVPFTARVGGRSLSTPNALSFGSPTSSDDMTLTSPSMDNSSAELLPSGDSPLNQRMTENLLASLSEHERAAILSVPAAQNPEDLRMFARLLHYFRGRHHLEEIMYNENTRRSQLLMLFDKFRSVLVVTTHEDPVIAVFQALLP

[3] = target: purified GATOR1 complex containing DEPDC5^Y775A (UniProt O75140); test: pull-down; 6 ug purified GATOR1 (DEPDC5^Y775A) held on anti-HA magnetic beads; 3 ug of each purified Rag heterodimer added overnight in CHAPS buffer (40 mM HEPES pH 7.4, 150 mM NaCl, 2 mM MgCl2, 0.1% CHAPS) with 200 uM GDP; washes with 500 mM NaCl; empty beads as background control; both purified
[4] = target: FLAG-tagged RagC^S75N (human) (UniProt Q9HB90); test: co-purification; untagged RagA/B proteins co-transfected with FLAG-tagged RagC (S75N or Q120L) in RagABKO HEK293T; anti-FLAG beads, washes with 300 mM NaCl added, FLAG peptide elution; Coomassie staining
[5] = target: FLAG-tagged RagC^Q120L (human) (UniProt Q9HB90); test: as above
[6] = target: N-terminally His-tagged RagC^S75N (human) (UniProt Q9HB90); test: co-purification; untagged RagA or RagB^short co-expressed with N-terminally His-tagged RagC^S75N in E. coli; Ni-NTA, anion exchange and gel filtration; Coomassie staining

**Q.** With “GTP-locked RagB^long (Q127L) (from UniProt Q5VZM2 1-374)” as the substance, how does the binding [1] read?
**A.** Its binding is “binds”.

**Q.** What about the binding [2] of the same substance?
**A.** Its binding is “binds weakly”.

**Q.** How did the binding [1] turn out when “GTP-locking mutant of RagB^long with D96A (from UniProt Q5VZM2 1-374)” was run?
**A.** The binding was “binds”.

**Q.** With “GTP-locking mutant of RagB^long with L94A (from UniProt Q5VZM2 1-374)” as the substance, how does the binding [1] read?
**A.** The binding was “binds”.

**Q.** Which binding (RagD (human)) does the source give for RagA (from UniProt Q7L523 1-313) here?
**A.** The binding was “binds”.

**Q.** Which results are given for RagB^long (from UniProt Q5VZM2 1-374)?
**A.** binding (RagD (human)): binds; binding (RagC (human)): binds; binding [2]: binds weakly

**Q.** What does the source list for “RagB^short (from UniProt Q5VZM2-2 1-346)”?
**A.** binding (RagD (human)): binds; binding (RagC (human)): binds; binding [2]: binds

**Q.** “RagB^shortAQVHS (from UniProt Q5VZM2-2 1-346)” was tested. Which binding [2] did it give?
**A.** The binding was “binds”.

**Q.** How did the binding [2] turn out when “RagB^shortΔN (from UniProt Q5VZM2-2 1-346)” was run?
**A.** The binding was “binds”.

**Q.** How did the binding (Nprl2/3 dimer) turn out when “non-GTP-bound RagB^long (T54N) (from UniProt Q5VZM2 1-374)” was run?
**A.** Its binding is “binds”.

**Q.** What about the binding [2] of the same substance?
**A.** Its binding is “no binding”.

**Q.** For “non-GTP-bound RagB^short (T54N) (from UniProt Q5VZM2-2 1-346)”, which binding (Nprl2/3 dimer) is on record?
**A.** Its binding is “binds”.

**Q.** What about the binding [1] of the same substance?
**A.** Its binding is “binds”.

**Q.** What does the source list for “untagged RagB^long purified from HEK293T cells (from UniProt Q5VZM2 1-374)”?
**A.** binding [3]: binds; binding [4]: binds

**Q.** “untagged RagB^longT54N purified from HEK293T cells (from UniProt Q5VZM2 1-374)” was tested. Which binding [5] did it give?
**A.** Its binding is “binds”.

**Q.** What does the source list for “untagged RagB^short purified from bacteria (from UniProt Q5VZM2-2 1-346)”?
**A.** binding [3]: binds; binding [6]: binds

**Q.** How did the binding [5] turn out when “untagged RagB^shortT54N purified from HEK293T cells (from UniProt Q5VZM2-2 1-346)” was run?
**A.** Its binding is “binds”.
